# Results taken from PubChem BioAssay AID1030 (National Center for Advancing Translational Sciences (NCATS), 2008).
# The campaign covered roughly 220,000 compounds. About 16,000 (7.3%) were called active. The inconclusive results got no clear call from the source; some entries with a clear call stand among them for comparison. Calls follow the shape of the dose curve; as a rule, active = well fitted inhibition curve with a large enough effect (not every such curve was filed as active); inconclusive = small, poorly fitted or top-dose-only effect, or another doubt; inactive = no such curve, though single readings can be large or run the other way. Potencies of inconclusive entries are left out as doubtful fits.
# Molecular target: Aldehyde dehydrogenase 1A1 (Homo sapiens) (UniProt P00352)
# Experiment: qHTS Assay for Inhibitors of Aldehyde Dehydrogenase 1 (ALDH1A1);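 as to activity, negative = inhibition: plate controls were no enzyme wells and a reference inhibitor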
# Conditions: Purified ALDH1A1, NADH fluorescence, propionaldehyde substrate; series mostly up to 75.3 µM; activity, negative = inhibition: at the top concentration
# Potency is read from the fitted curve at half-maximal effect; tags tell the direction and shape of the fitted curve.
# Chain of UniProt P00352 (P00352 whole entry, looked up): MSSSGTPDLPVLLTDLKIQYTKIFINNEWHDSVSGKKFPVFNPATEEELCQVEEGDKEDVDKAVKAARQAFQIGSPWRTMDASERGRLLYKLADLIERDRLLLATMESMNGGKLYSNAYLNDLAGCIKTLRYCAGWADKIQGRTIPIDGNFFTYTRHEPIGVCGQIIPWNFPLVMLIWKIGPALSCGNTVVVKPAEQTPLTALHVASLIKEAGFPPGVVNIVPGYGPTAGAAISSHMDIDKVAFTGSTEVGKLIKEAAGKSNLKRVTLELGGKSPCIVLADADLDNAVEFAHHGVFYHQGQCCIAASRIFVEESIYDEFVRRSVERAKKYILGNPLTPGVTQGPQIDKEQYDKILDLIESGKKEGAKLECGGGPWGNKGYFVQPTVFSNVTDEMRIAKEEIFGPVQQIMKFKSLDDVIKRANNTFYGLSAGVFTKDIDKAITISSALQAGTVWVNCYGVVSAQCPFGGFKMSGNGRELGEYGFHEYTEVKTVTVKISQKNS
Compound,Potency,"activity, negative = inhibition"
Cc1nc2ccc(Nc3nc4cc(S(=O)(=O)N5CCOCC5)ccc4o3)cc2s1,active: 3.55 µM,–
C/C(=N\N1CCCCCC1)c1c(O)n(-c2ccc(C)cc2)c(=O)[nH]c1=O,"inconclusive [inhibitor, single point]",–
C=CCNc1nnc(Sc2ncccc2[N+](=O)[O-])s1,"inconclusive [inhibitor, single point]",–
CCCCCCC(N)CC(=O)O (stereo not given),–,inactive: 5.11%
CCOC(=O)CSc1nn(-c2ccccc2)c(=S)s1,"inconclusive [inhibitor, single point]",–
COc1ccc(OCC(=O)Nc2ccc(Cl)cc2C(=O)c2ccccc2)cc1,"inconclusive [inhibitor, full curve]",–
Cc1cccc(C2=NCC(=O)N(CC(=O)NCc3ccco3)c3sc4c(c32)CCCC4)c1,active: 20 µM,–
CN[C@@H]1C[C@@]2(C)O[C@@H]([C@@H]1OC)n1c3ccccc3c3c4c(c5c6ccccc6n2c5c31)C(=O)NC4,"inconclusive [inhibitor, single point]",–
Cc1ccc2nc(N3CCC(C(=O)N4CCC5(CC4)OCCO5)CC3)sc2c1,"inconclusive [inhibitor, single point]",–
CCN1C[C@]2(C)CC[C@H](O)[C@@]34[C@@H]5C[C@@H]6[C@@H](OC)C[C@@](O)(C5[C@H]6O)[C@@H](C[C@@H]23)[C@@H]14,–,inactive: 8.57%
CCOC(=O)C(O)(c1ccc(NC(=O)c2ccco2)c(OC)c1)C(F)(F)F (stereo not given),"inconclusive [inhibitor, single point]",–
C[N+](C)(C)CC#CCN1CCCC1=O,–,inactive: 0.476%
CCOC(=O)CN1C(=O)CC(C[C@@H](O)C2C[C@@H](C)C[C@H](C)C2=O)CC1=O (stereo not given in full),–,inactive: -10.5%
Nc1ccc(Sc2ccc(N)cc2)cc1,–,inactive: -8.48%
Cc1nn(Cc2ccccc2)c(C)c1C=C1C(=O)NC(=O)NC1=O,–,inactive: -3.96%
CN(CCC(N)CC(=O)NC1C=CC(n2ccc(N)nc2=O)OC1C(=O)O)C(=N)N (stereo not given),–,inactive: 0.661%
Cc1cc(Cc2cc(C)c(N)cc2N)c(N)cc1N,"inconclusive [inhibitor, single point]",–
Cc1ccc(-n2c(O)c(C=NCCN(C)C)c(=O)[nH]c2=O)cc1,–,inactive: -0.166%
O=C(c1sc2ccccc2c1Cl)N1CCC2(CC1)OCCO2,active: 10 µM,–
COc1cccc(C2(O)CCN(Cc3ccncc3)CC2)c1,"inconclusive [inhibitor, single point]",–
O=c1c2ccccc2nc(-c2ccc([N+](=O)[O-])cc2)n1-c1ccccc1,active: 3.16 µM,–
Cn1c(=O)cc(OCC(=O)N2CCC3(CC2)OCCO3)c2ccccc21,–,inactive: 7.36%
Cc1ccc(-n2c(O)c(/C=C3/C(c4ccccc4)=Nc4ccccc43)c(=O)[nH]c2=O)cc1,active: 25.1 µM,–
Cc1c(C(=O)N2CCC3(CC2)OCCO3)oc2ccccc12,"inconclusive [inhibitor, single point]",–
Cc1ccccc1-n1c(C)cc(/C=C2/C(=O)NC(=O)N(Cc3ccco3)C2=O)c1C,active: 3.55 µM,–

Compound,Potency,"activity, negative = inhibition"
N#CC1(O)CCCCC1,active: 28.2 µM,–
O=C(O)C(Cl)Br (stereo not given),"inconclusive [inhibitor, single point]",–
COc1cc(C(O)P(=O)(OC2CCCCC2)c2ccc(N(C)C)cc2)cc(OC)c1OC (stereo not given),"inconclusive [inhibitor, single point]",–
CC(C)(C)NS(=O)(=O)c1ccc(OCC(=O)N2CCN(Cc3ccccc3)CC2)cc1,"inconclusive [inhibitor, single point]",–
O=[N+]([O-])c1ccc(-c2ccc(C=Nc3cccc4ccccc34)o2)cc1,"inconclusive [inhibitor, partial curve]",–
CCCCNC(=O)c1c(N)n(CCCOC)c2nc3ccccc3nc12,"inconclusive [inhibitor, partial curve]",–
COc1ccc(OC)c(-n2c(O)c(C=Nc3c(C)n(C)n(-c4ccccc4)c3=O)c(=O)[nH]c2=S)c1,"inconclusive [inhibitor, single point]",–
CCc1ccc(N2C(=O)NC(=O)/C(=C/c3ccsc3)C2=O)cc1,–,inactive: -5.22%
CC1=C2C(=CO[C@H](C)[C@H]2C)C(=O)C(C(=O)O)=C1O,–,inactive: -1.87%
Oc1ccc(/C=N/NP(=S)(c2ccccc2)c2ccccc2)c(O)c1O,active: 11.2 µM,–
COc1ccccc1N1CCN(C2CCN(C(=O)c3cc(OC)c(OC)c(OC)c3)CC2)CC1,"inconclusive [inhibitor, single point]",–
CCc1c(C)nc(N)nc1N1N=C1SC(C(C)=O)C(C)=O,"inconclusive [inhibitor, single point]",–
COc1cc2c(cc1OC)C(C(=O)NCCC(C)C)C1CCCCN1C2=O (stereo not given),"inconclusive [inhibitor, partial curve]",–
O=c1[nH]c(=O)n(Cc2ccco2)c(O)c1C=NCCCn1ccnc1,–,inactive: 3.1%
CC(C)(O)C(=O)Nc1ccc([N+](=O)[O-])c(C(F)(F)F)c1,–,inactive: -0.84%
O=C1CC2OCC=C3CN4CC[C@]56c7ccccc7N1[C@H]5[C@H]2C3C[C@H]46 (stereo not given in full),–,inactive: -6.88%
Cc1cccc(NC(=O)CSc2ccc(-c3ccco3)nn2)c1,"inconclusive [inhibitor, partial curve]",–
CCCCOC(=O)CCN1C(=O)/C(=C2\SC(=S)N(CCC(=O)OCCCC)C2=O)SC1=S,active: 14.1 µM,–
O=C(/C=C/c1ccccc1)c1c(O)n(CCc2ccccc2)c(=O)[nH]c1=O,–,inactive: 0.738%
Cc1cccn2c(NCC3CCCO3)c(C(C)C)nc12 (stereo not given),"inconclusive [inhibitor, partial curve]",–
CC(C)N1CCN(Cc2cccc([N+](=O)[O-])c2)CC1,active: 3.55 µM,–
CCN1C[C@@]2(COC)[C@H]3[C@@H](OC)[C@H]4C1[C@@]3([C@H](OC)C[C@@H]2O)[C@H]1C[C@@]2(O)[C@@H](OC(=O)c3ccccc3)[C@@H]1[C@@]4(OC(C)=O)[C@H](O)[C@@H]2OC,–,inactive: 1.19% [at 20.9 µM]
COc1ccc(NC(c2ccccc2)P(=O)(Oc2ccccc2)Oc2ccccc2)cc1 (stereo not given),–,inactive: -8.78%
O=C(Cc1ccccc1)N1CCN(Cc2c[nH]c3ccccc23)CC1,active: 25.1 µM,–
C=C(CC1CC(O)[C@]2(C)OC3CC4OC5C[C@]6(C)O[C@]7(C)CCC8OC9C[C@]%10(C)OC%11C(C)=CC(=O)OC%11CC%10OC9C[C@@H](C)C8OC7CC6O[C@]5(C)C/C=C\C4OC3CC2O1)C(=O)O (stereo not given in full),active: 3.98 µM,–

Compound,Potency,"activity, negative = inhibition"
O=C(Oc1ccccc1)N1CCC[C@@]2(CCN(Cc3nccs3)C2)C1,–,inactive: -3.98%
CCCC(C)C1(CC)C(=O)NC(=S)NC1=O (stereo not given),–,inactive: -1.74%
Cc1ccsc1C(=O)C1CCCN(Cc2cnc(N3CCOCC3)s2)C1 (stereo not given),"inconclusive [inhibitor, single point]",–
Clc1cc(Cl)cc(NC2=NCCS2)c1,"inconclusive [inhibitor, single point]",–
Cc1ccc(N2C(=O)NC(=O)/C(=C\c3ccsc3)C2=O)cc1C,–,inactive: -6.88%
O=C(c1cc2c(s1)-c1ccccc1OC2)N1CCC2(CC1)OCCO2,"inconclusive [inhibitor, partial curve]",–
C=CCn1c(O)c(N=Nc2c(C)n(C)n(-c3ccccc3)c2=O)c(=O)[nH]c1=S,"inconclusive [inhibitor, single point]",–
O=c1ccc2c(O)c3ccoc3cc2o1,"inconclusive [inhibitor, single point]",–
CCCCC(=O)N/N=C/c1c(O)n(CCc2ccc(OC)c(OC)c2)c(=O)[nH]c1=O,–,inactive: 0.739%
Cc1cc2c(s1)NC(=O)CN=C2c1cccs1,"inconclusive [inhibitor, partial curve]",–
O=C(CC1CCCCC1)N1CCC(c2nc(-c3ccc(S(=O)(=O)N4CCCC4)cc3)no2)CC1,"inconclusive [inhibitor, single point]",–
Cc1c(N=Cc2c(O)n(CCc3ccc(F)cc3)c(=O)[nH]c2=O)c(=O)n(-c2ccccc2)n1C,"inconclusive [inhibitor, single point]",–
CC(C)Nc1ccc(Nc2ccccc2)cc1,active: 8.91 µM,–
Cc1cc(C(=O)NP(=O)(N2CCOCC2)N2CCOCC2)c(C)n1C1CC1,"inconclusive [inhibitor, single point]",–
O=c1[nH]c(=S)[nH]c(O)c1C(c1ccccn1)c1c(O)[nH]c(=S)[nH]c1=O,"inconclusive [inhibitor, single point]",–
Clc1ccc(Cn2ccnc2)cn1,–,inactive: 7.6%
O=C1CCCC2C3CCCN4CCCC(CN12)C34 (stereo not given),–,inactive: -2.06%
Cc1cccc(CN2CCN(Cc3ccc(Cl)cc3)CC2)c1,"inconclusive [inhibitor, single point]",–
c1ccc(NC2=Nc3ccccc3CC2)cc1,"inconclusive [inhibitor, single point]",–
Cc1ncc(CN2CC=C(c3ccccc3)CC2)c(N)n1,"inconclusive [inhibitor, single point]",–
CCC[N+](=O)[O-],–,inactive: 8.21%
C#CCO,active: 22.4 µM,–
COc1ccc2c3c1O[C@H]1[C@@H](O)C=C[C@H]4C(C2)NCCC341 (stereo not given in full),–,inactive: -5.98%
O=C(c1ccncc1)N1CCC[C@@]2(CCN(Cc3nccs3)C2)C1,–,inactive: 3.82%
O=[N+]([O-])c1cc(C(F)(F)F)cc([N+](=O)[O-])c1Cl,"inconclusive [inhibitor, partial curve]",–
